Results from paper PMC6919601, “Identification of Plasmodium dipeptidyl aminopeptidase allosteric inhibitors by high throughput screening” (PLoS ONE, 2019).
The whole screen tested about 110,000 compounds, of which about 230 (0.21%) showed an effect of 50% or more. The list shows a part of the results.

target: DPAP1 (Plasmodium falciparum, UniProt Q8IIJ9); assay: primary screen, percent inhibition; read by cleavage of a fluorogenic dipeptide substrate; higher = more effect of the substance; design: species or system P. falciparum D10 trophozoite lysates; single well
Sequence (Q8IIJ9 whole entry, looked up): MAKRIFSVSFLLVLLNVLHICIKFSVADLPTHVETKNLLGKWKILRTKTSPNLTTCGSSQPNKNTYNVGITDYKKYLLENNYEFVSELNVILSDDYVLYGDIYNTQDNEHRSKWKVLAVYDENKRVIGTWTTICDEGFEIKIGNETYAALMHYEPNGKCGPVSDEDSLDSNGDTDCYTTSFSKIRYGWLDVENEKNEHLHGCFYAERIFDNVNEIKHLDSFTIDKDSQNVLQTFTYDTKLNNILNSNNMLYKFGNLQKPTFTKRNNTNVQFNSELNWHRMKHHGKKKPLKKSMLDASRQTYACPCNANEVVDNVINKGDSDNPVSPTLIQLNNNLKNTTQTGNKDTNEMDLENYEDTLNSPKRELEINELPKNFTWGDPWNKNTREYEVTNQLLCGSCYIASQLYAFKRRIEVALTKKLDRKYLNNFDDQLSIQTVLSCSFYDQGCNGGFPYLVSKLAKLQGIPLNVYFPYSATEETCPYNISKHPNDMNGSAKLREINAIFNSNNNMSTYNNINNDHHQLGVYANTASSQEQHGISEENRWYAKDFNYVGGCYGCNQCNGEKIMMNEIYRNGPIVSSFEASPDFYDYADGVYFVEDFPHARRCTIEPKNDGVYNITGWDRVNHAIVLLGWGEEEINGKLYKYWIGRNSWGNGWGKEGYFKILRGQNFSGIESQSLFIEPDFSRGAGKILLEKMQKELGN
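Also: 30 min substrate incubation versus DMSO and 10 µM JCP410 controls.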

First: O=C(CN1C(=O)S/C(=C/c2ccncc2)C1=O)N1CCOCC1
Second: COc1ccc(N2C(=O)CC(N3CCC(C(N)=O)CC3)C2=O)cc1 (centres unmarked)
The “% Inhibition @ 10 uM” value of the first is higher: -1.38% for the first, -5.07% for the second.

Going from COC(=O)C1=C(O)/C(=C\c2ccccc2Cl)N=C1C to COc1ccc(Cl)cc1N(CC(=O)Nc1ccccc1Cl)S(C)(=O)=O, the “% Inhibition @ 10 uM” value falls from 2.16% to -5.13%.

First: Cc1oncc1NC(=O)[C@H](CC(C)C)NC(=O)c1ccc(N2CCN(C)CC2)cc1
Second: CCOC(=O)c1cc(C)n(-c2ccc(C(=O)Nc3nc(C)cs3)cc2)c1C
The “% Inhibition @ 10 uM” value of the first is lower: 0.173% for the first, 2.72% for the second.

Compared with Cc1sc(NC(=O)COc2ccccc2)c(C(N)=O)c1C, Cc1sc(NC(=O)Cc2cccc3ccccc23)c(C(N)=O)c1C is higher in “% Inhibition @ 10 uM” value: 1.4% for the first, 14.5% for the second.

First: CC(=O)NC(Cc1c[nH]c2ccccc12)C(=O)NCc1cccs1 (centres unmarked)
Second: N=C(NOC(=O)Cc1cccs1)c1ccc(Cl)cc1
The “% Inhibition @ 10 uM” value of the first is lower: -7.96% for the first, 3.27% for the second.

First: NC(=O)C1CCN(C(=O)c2cnn(-c3ccccc3)c2NC(=O)c2ccccc2F)CC1
Second: Cc1nc2ccccc2cc1C(=O)NCc1ccccc1
The “% Inhibition @ 10 uM” value of the first is lower: -8.41% for the first, 4.31% for the second.

Going from CC(O)C(NC(=O)OCc1ccccc1)C(=O)NC(CCc1ccccc1)C(=O)CO (centres unmarked) to CCOC(=O)N1CCc2c(sc3c2c(=O)n(Cc2ccccc2)c(=O)n3Cc2ccccc2F)C1, the “% Inhibition @ 10 uM” value rises from -11% to 0.44%.

Compared with CCn1c(SCC(N)=O)nc2c(c1=O)C1(CCCCC1)Cc1ccccc1-2, Cc1cccc(CN2CCC(CNC(=O)C3c4ccccc4C(=O)N4CCc5ccccc5C34)CC2)c1 (centres unmarked) is lower in “% Inhibition @ 10 uM” value: 1.02% for the first, -0.631% for the second.

Compared with CN(C)CCn1nnc2c(=O)oc3ccccc3c21, COc1cc2c(cc1NC(=O)CCn1cc(Br)cn1)oc1ccccc12 is higher in “% Inhibition @ 10 uM” value: -4.21% for the first, -1.21% for the second.

Compared with Cc1c(Cl)cccc1-n1nc(C)c2c(C(F)(F)F)cc(=O)n(CC(=O)NCc3ccccc3)c21, COc1cccc(OC)c1C(=O)Nc1ccccc1C(F)(F)F is lower in “% Inhibition @ 10 uM” value: -0.835% for the first, -5.65% for the second.

Going from CCOc1cc(CN2CCc3ccccc3C2)ccc1OC to Brc1cccc(CN2CCN(c3ncccn3)CC2)c1, the “% Inhibition @ 10 uM” value rises from -3.65% to -0.473%.

Compared with CCC(=O)OCC1OC(n2ccc(=O)[nH]c2=O)CC1OC(=O)CC (centres unmarked), CCCCN1C(=O)C(O)=C(C(C)=O)C1c1ccc(F)cc1 (centres unmarked) is lower in “% Inhibition @ 10 uM” value: -2.59% for the first, -6.83% for the second.

Going from O=C1CC(c2cccs2)c2cc3c(cc2N1)OCO3 (centres unmarked) to Cc1ccc(S(=O)(=O)N(CC(=O)Nc2ccc3c(c2)OCO3)Cc2ccccc2F)cc1, the “% Inhibition @ 10 uM” value falls from 5.15% to -13.1%.

Compared with Cc1ccc(CSc2ncc(C#N)c(N)n2)cc1, Cc1ccc(Cn2cc[nH]c(=O)c2=O)cc1 is lower in “% Inhibition @ 10 uM” value: 0.401% for the first, -4.58% for the second.

First: O=C(O)c1ccn2c(C(=O)c3ccccc3)c(-c3ccccc3)cc2c1
Second: COc1ccc(-c2cn(-c3ccc(C)cc3)c(=O)n2-c2ccccc2)cc1
The “% Inhibition @ 10 uM” value of the first is higher: -1.22% for the first, -5.98% for the second.

First: O=c1c(-c2ccc3c(c2)OCCO3)coc2c(CN3CCN(CCO)CC3)c(O)ccc12
Second: O=C(CCCN1C(=O)c2ccccc2C1=O)Nc1cccc(Cl)c1Cl
The “% Inhibition @ 10 uM” value of the first is lower: -1.82% for the first, -1.16% for the second.

First: COc1ccc(S(=O)(=O)Nc2cccc(NS(=O)(=O)c3ccc(OC)cc3)c2)cc1
Second: COc1ccc(OCC(=O)Nc2ccc(S(=O)(=O)NC(C)=O)cc2)cc1
The “% Inhibition @ 10 uM” value of the first is higher: 2.03% for the first, -13.4% for the second.

First: CCOc1ccc(CNCc2cccs2)cc1
Second: CCOc1ccc(NC(=O)CC(C)C)cc1
The “% Inhibition @ 10 uM” value of the first is higher: 2.08% for the first, -0.872% for the second.

Going from COc1ccc(C)cc1N(CC(=O)Nc1cccnc1)S(C)(=O)=O to N#CCc1ccc(NC(=O)COc2cccc(Br)c2)cc1, the “% Inhibition @ 10 uM” value falls from 6.79% to 0.231%.

Compared with O=C(NCCNC(=O)Nc1ccc(Cl)cc1)Nc1ccc(Cl)cc1, O=C1CC(c2ccc(Cl)cc2)NC(NC(=O)c2ccc(OC(F)F)cc2)=N1 (centres unmarked) is higher in “% Inhibition @ 10 uM” value: -7.28% for the first, -5.05% for the second.

Compared with O=S(=O)(c1ccsc1)c1ccsc1, C=CCn1c(=N)n(CC(=O)c2cccs2)c2ccccc21 is lower in “% Inhibition @ 10 uM” value: 3.31% for the first, -7.12% for the second.

Compared with CCc1nc2cc(Cc3ccc4[nH]c(CC)nc4c3)ccc2[nH]1, CCN1C(=O)N/C(=C/c2cc(Br)ccc2OCc2ccc(C(=O)O)cc2)C1=O is lower in “% Inhibition @ 10 uM” value: 0.628% for the first, -4.54% for the second.

Compared with O=C1c2ccccc2C(=O)N1c1ncc(Cc2cc(Cl)ccc2Cl)s1, Cc1nc2ccccc2n1CCOc1ccc(Cl)cc1 is lower in “% Inhibition @ 10 uM” value: 7.93% for the first, 2.79% for the second.

Going from COc1cc(-c2cc(NC(=O)COCc3cc(-c4ccco4)on3)on2)cc(OC)c1OC to CSc1nc(C)cc(OCCNC(=O)COc2ccc(Cl)cc2C)n1, the “% Inhibition @ 10 uM” value falls from 1.34% to 0.884%.

Going from CC(=O)N(CCN(C)C)c1nc2cc(C)cc(C)c2s1 to CCN(CC)CCN(C)Cc1ccc(SC)cc1, the “% Inhibition @ 10 uM” value rises from 1.46% to 3.18%.

Compared with Cc1ccccc1-c1nc(CSc2nc(O)c3c(n2)CCC3)c(C)o1, Cc1nc(SCC(=O)N2CCCCCC2)c2c3c(sc2n1)CCC3 is higher in “% Inhibition @ 10 uM” value: -1.21% for the first, 0.13% for the second.

First: O=C1C2CCCC1C(c1ccccc1)NC2c1ccccc1 (centres unmarked)
Second: CCCNC(=O)CSCc1cnn(-c2ccccc2)c1-n1cccc1
The “% Inhibition @ 10 uM” value of the first is higher: 10.4% for the first, -1.08% for the second.

First: COc1cccc2cc(C(=O)/C=C/c3cccc(F)c3)c(=O)oc12
Second: CCOc1ccc(C2CC(=O)NC(SCC(=O)Nc3ccc(Br)cc3)=C2C#N)cc1 (centres unmarked)
The “% Inhibition @ 10 uM” value of the first is higher: 3.1% for the first, -6.38% for the second.

Compared with Cc1ccc(-c2nnc(C)o2)cc1, Cc1ccc(/N=C2/SC(CC(=O)O)C(=O)N2C2CCCCC2)cc1 (centres unmarked) is lower in “% Inhibition @ 10 uM” value: -1.68% for the first, -4.39% for the second.

Going from Cc1cc(O)nc(SCC(=O)C23CC4CC(CC(C4)C2)C3)c1C#N to CSCCC1C(C#N)=C(N)Oc2[nH]nc(-c3cccs3)c21 (centres unmarked), the “% Inhibition @ 10 uM” value falls from 1.76% to -2.16%.

First: O=C(O)CCCCCNC(=O)c1ccc(Br)cc1
Second: CCN(CC)c1ccc(C2C(C#N)=C(N)OC3=C2C(=O)CCC3)cc1 (centres unmarked)
The “% Inhibition @ 10 uM” value of the first is lower: -1.97% for the first, 3.65% for the second.

Compared with O=C(Nc1nc2ccccc2s1)C1CCN(c2ncnc3c2nc2n3CCCCC2)CC1, C#CCOc1ccc(C2C(C#N)=C(N)OC3=C2C(=O)CCC3)cc1OC (centres unmarked) is lower in “% Inhibition @ 10 uM” value: 5.92% for the first, -6.51% for the second.

Cc1ccc(C(C)C)c(OCC(O)CN2CCOCC2)c1 (centres unmarked) was tested, and the “% Inhibition @ 10 uM” value was -5.51%.
